Over roughly 81,000 sequences, “one-hybrid fitness for binding NBS DNA” has its median near -0.1; the highest 2% begin near 0.36. Some of the results follow.
B1: Caulobacter ParB omega fusion; a variant is named by its letters at X, in order, B8GW30 (parent)
chain: MESVVVGEPGMSEGRRGLGRGLSALLGEVDAAPAQAPGEQLGGSREAPIEILQRNPDQPRRTFREEDLEDLSNSIREKGVLQPILVRPSPDTAGEYQIVAGERAWRAAQRAGLKTVPIMVRELDDLAVLEIGIIENVQRADLNVLEEALSYKVLMEKFERTQENIAQTIGKSXSHVANXMRLLXLPDEVQSYLVSGELTAXHARAIAAAADPVALAKQIIEGGLSVRETEALARKAPNLSAGKSKGGRPPRVKDTDTQALESDLSSVLGLDVSIDHRGSTGTLTITYATLEQLDDLCNRLTRGI

Variants of: B1
Experiment: one-hybrid fitness for binding NBS DNA (the Noc-binding site; scaled: cognate 1, non-cognate 0); higher = stronger binding
Details: with NBS DNA site
Method in brief: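 Values were rescaled so that cognate is 1 and non-cognate is 0. Each is a fitness, the log change in a variant's read ratio to wild type from Illumina reads of plasmids before and after selection, with three replicate libraries pooled and variants under 10 reads dropped. Selection of the Caulobacter ParB libraries, four specificity codons randomised, used E. coli USO with a HIS3 reporter, site 19 bp from the promoter, on M9-minus-histidine with 0.1 mM IPTG and 5 mM 3-AT for 48 hours at 37°C.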

| Variant | one-hybrid fitness for binding NBS DNA |
| --- | --- |
| QGWR | 0.203 |
| MTLR | ≤ 0.2 |
| RDFA | ≤ 0.2 |
| MQAT | ≤ 0.2 |
| NGEN | ≤ 0.2 |
| RFEM | ≤ 0.2 |
| YAPE | ≤ 0.2 |
| GQHW | ≤ 0.2 |
| ALRN | ≤ 0.2 |
| RKIG | ≤ 0.2 |
| LISA | ≤ 0.2 |
| PPQE | ≤ 0.2 |
| QTIY | ≤ 0.2 |
| MSNK | ≤ 0.2 |
| AVKS | ≤ 0.2 |
| QVRC | 0.215 |
| PMMV | ≤ 0.2 |
| NCHW | ≤ 0.2 |
| NIAA | ≤ 0.2 |
| STRK | ≤ 0.2 |
| RIVF | ≤ 0.2 |
| RMLI | ≤ 0.2 |
| AAPC | ≤ 0.2 |
| TGEV | ≤ 0.2 |
| VYNQ | ≤ 0.2 |

| Variant | one-hybrid fitness for binding NBS DNA |
| --- | --- |
| TVSI | ≤ 0.2 |
| PPIG | ≤ 0.2 |
| PACW | ≤ 0.2 |
| KMLC | ≤ 0.2 |
| TFSE | ≤ 0.2 |
| PNET | ≤ 0.2 |
| WTVT | ≤ 0.2 |
| FREP | ≤ 0.2 |
| CSQG | ≤ 0.2 |
| SCLK | ≤ 0.2 |
| DHRY | ≤ 0.2 |
| CSQN | ≤ 0.2 |
| LYDW | ≤ 0.2 |
| AIDD | ≤ 0.2 |
| WFWS | ≤ 0.2 |
| KAES | ≤ 0.2 |
| THQN | ≤ 0.2 |
| PYSH | ≤ 0.2 |
| SGHP | ≤ 0.2 |
| PTFV | ≤ 0.2 |
| TYIS | ≤ 0.2 |
| QWYR | 0.201 |
| YLKS | ≤ 0.2 |
| DAVV | ≤ 0.2 |
| SSSW | ≤ 0.2 |

| Variant | one-hybrid fitness for binding NBS DNA |
| --- | --- |
| KYTK | ≤ 0.2 |
| ENRC | ≤ 0.2 |
| WNHS | ≤ 0.2 |
| WVTL | ≤ 0.2 |
| VSKF | ≤ 0.2 |
| TATN | ≤ 0.2 |
| HVLL | ≤ 0.2 |
| VILS | ≤ 0.2 |
| SHTP | ≤ 0.2 |
| SCDS | ≤ 0.2 |
| DHWS | ≤ 0.2 |
| QATL | ≤ 0.2 |
| EQTF | ≤ 0.2 |
| IDSE | ≤ 0.2 |
| LMCK | ≤ 0.2 |
| QFDG | ≤ 0.2 |
| RAIA | ≤ 0.2 |
| TLHI | ≤ 0.2 |
| TRPH | ≤ 0.2 |
| IHAS | ≤ 0.2 |
| HEHS | ≤ 0.2 |
| TNLD | ≤ 0.2 |
| LANI | ≤ 0.2 |
| PEHG | ≤ 0.2 |
| NTTG | ≤ 0.2 |

| Variant | one-hybrid fitness for binding NBS DNA |
| --- | --- |
| IPPR | ≤ 0.2 |
| DTVK | ≤ 0.2 |
| KKHY | ≤ 0.2 |
| TNQV | ≤ 0.2 |
| REDG | ≤ 0.2 |
| NDVT | ≤ 0.2 |
| SWCS | ≤ 0.2 |
| VKRA | ≤ 0.2 |
| NVDW | ≤ 0.2 |
| RGMF | ≤ 0.2 |
| AWNT | ≤ 0.2 |
| MLKC | ≤ 0.2 |
| MPLT | ≤ 0.2 |
| DNRC | ≤ 0.2 |
| HSRD | ≤ 0.2 |
| SVIN | ≤ 0.2 |
| AYHY | ≤ 0.2 |
| RHRD | ≤ 0.2 |
| PVGR | ≤ 0.2 |
| RNTM | ≤ 0.2 |
| HMKT | ≤ 0.2 |
| GPMF | ≤ 0.2 |
| ICWG | ≤ 0.2 |
| NLFT | ≤ 0.2 |
| SQLI | ≤ 0.2 |

| Variant | one-hybrid fitness for binding NBS DNA |
| --- | --- |
| WAEL | ≤ 0.2 |
| HSGN | ≤ 0.2 |
| PTGE | ≤ 0.2 |
| AWLR | ≤ 0.2 |
| NPES | ≤ 0.2 |
| QRHW | 0.288 |
| QLVS | ≤ 0.2 |
| NWLA | ≤ 0.2 |
| MFRS | ≤ 0.2 |
| LWAI | ≤ 0.2 |
| YFQT | ≤ 0.2 |
| HLEG | ≤ 0.2 |
| KERY | ≤ 0.2 |
| KIAD | ≤ 0.2 |
| PAHV | ≤ 0.2 |
| AAEC | ≤ 0.2 |
| IKCV | ≤ 0.2 |
| RQPW | ≤ 0.2 |
| AGCM | ≤ 0.2 |
| RRMV | 0.226 |
| KTTY | ≤ 0.2 |
| CTTS | ≤ 0.2 |
| RTSW | ≤ 0.2 |
| TVFG | ≤ 0.2 |
| LKCE | ≤ 0.2 |

| Variant | one-hybrid fitness for binding NBS DNA |
| --- | --- |
| KIQR | ≤ 0.2 |
| RELW | ≤ 0.2 |
| VTPE | ≤ 0.2 |
| MSLE | ≤ 0.2 |
| AVTS | ≤ 0.2 |
| KHQR | ≤ 0.2 |
| MAKV | ≤ 0.2 |
| GISG | ≤ 0.2 |
| EFNW | ≤ 0.2 |
| QYIA | ≤ 0.2 |
| FMAV | ≤ 0.2 |
| RYSW | ≤ 0.2 |
| ETAV | ≤ 0.2 |
| SPPM | ≤ 0.2 |
| PLES | ≤ 0.2 |
| VLAC | ≤ 0.2 |
| QSDN | ≤ 0.2 |
| YFAC | ≤ 0.2 |
| KNWS | ≤ 0.2 |
| VCSL | ≤ 0.2 |
| VLQG | ≤ 0.2 |
| DLWM | ≤ 0.2 |
| VPMG | ≤ 0.2 |
| DVPS | ≤ 0.2 |
| PRSH | ≤ 0.2 |

| Variant | one-hybrid fitness for binding NBS DNA |
| --- | --- |
| AVPD | ≤ 0.2 |
| LPPN | ≤ 0.2 |
| TPHT | ≤ 0.2 |
| LIVC | ≤ 0.2 |
| HENI | ≤ 0.2 |
| PQKM | ≤ 0.2 |
| QMPD | ≤ 0.2 |
| KWDT | ≤ 0.2 |
| QCES | 0.301 |
| KRLN | ≤ 0.2 |
| HAWS | ≤ 0.2 |
| ERGK | ≤ 0.2 |
| QTNL | 0.214 |
| RMAQ | ≤ 0.2 |
| THAI | ≤ 0.2 |
| FNVV | ≤ 0.2 |
| LFPF | ≤ 0.2 |
| VKWV | ≤ 0.2 |
| RAHH | ≤ 0.2 |
| QCAH | 0.255 |
| YTTG | ≤ 0.2 |
| QSGD | ≤ 0.2 |
| RCAI | ≤ 0.2 |
| FEAL | ≤ 0.2 |
| KRTK | ≤ 0.2 |

| Variant | one-hybrid fitness for binding NBS DNA |
| --- | --- |
| IKPR | ≤ 0.2 |
| AFVP | ≤ 0.2 |
| HMFN | ≤ 0.2 |
| KAHN | ≤ 0.2 |
| IYSL | ≤ 0.2 |
| RQFK | ≤ 0.2 |
| RTGC | ≤ 0.2 |
| LQFG | ≤ 0.2 |
| GIFS | ≤ 0.2 |
| NHRF | ≤ 0.2 |
| RQVD | ≤ 0.2 |
| YYRS | ≤ 0.2 |
| TPEQ | ≤ 0.2 |
| RQTR | 0.497 |
| DKPN | ≤ 0.2 |
| DTYG | ≤ 0.2 |
| VSWT | ≤ 0.2 |
| VIIR | ≤ 0.2 |
| EHNM | ≤ 0.2 |
| CIST | ≤ 0.2 |
